# Measurements from paper PMC4336329 (PLoS ONE, 2015).
# In all, about 310,000 compounds went through this assay and about 14,000 (4.5%) showed an effect of 50% or more. Effects have a minus sign here. This is one part of the list.
# Target: human ether-à-go-go-related gene (hERG) potassium channel (human, UniProt Q12809)
# Assay: primary screen, population patch clamp on CHO cells stably expressing hERG
# 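Also: peak tail current of the secondary pulse compared with the same well before compound.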
# human ether-à-go-go-related gene (hERG) potassium channel, sequence (Q12809 whole entry, looked up): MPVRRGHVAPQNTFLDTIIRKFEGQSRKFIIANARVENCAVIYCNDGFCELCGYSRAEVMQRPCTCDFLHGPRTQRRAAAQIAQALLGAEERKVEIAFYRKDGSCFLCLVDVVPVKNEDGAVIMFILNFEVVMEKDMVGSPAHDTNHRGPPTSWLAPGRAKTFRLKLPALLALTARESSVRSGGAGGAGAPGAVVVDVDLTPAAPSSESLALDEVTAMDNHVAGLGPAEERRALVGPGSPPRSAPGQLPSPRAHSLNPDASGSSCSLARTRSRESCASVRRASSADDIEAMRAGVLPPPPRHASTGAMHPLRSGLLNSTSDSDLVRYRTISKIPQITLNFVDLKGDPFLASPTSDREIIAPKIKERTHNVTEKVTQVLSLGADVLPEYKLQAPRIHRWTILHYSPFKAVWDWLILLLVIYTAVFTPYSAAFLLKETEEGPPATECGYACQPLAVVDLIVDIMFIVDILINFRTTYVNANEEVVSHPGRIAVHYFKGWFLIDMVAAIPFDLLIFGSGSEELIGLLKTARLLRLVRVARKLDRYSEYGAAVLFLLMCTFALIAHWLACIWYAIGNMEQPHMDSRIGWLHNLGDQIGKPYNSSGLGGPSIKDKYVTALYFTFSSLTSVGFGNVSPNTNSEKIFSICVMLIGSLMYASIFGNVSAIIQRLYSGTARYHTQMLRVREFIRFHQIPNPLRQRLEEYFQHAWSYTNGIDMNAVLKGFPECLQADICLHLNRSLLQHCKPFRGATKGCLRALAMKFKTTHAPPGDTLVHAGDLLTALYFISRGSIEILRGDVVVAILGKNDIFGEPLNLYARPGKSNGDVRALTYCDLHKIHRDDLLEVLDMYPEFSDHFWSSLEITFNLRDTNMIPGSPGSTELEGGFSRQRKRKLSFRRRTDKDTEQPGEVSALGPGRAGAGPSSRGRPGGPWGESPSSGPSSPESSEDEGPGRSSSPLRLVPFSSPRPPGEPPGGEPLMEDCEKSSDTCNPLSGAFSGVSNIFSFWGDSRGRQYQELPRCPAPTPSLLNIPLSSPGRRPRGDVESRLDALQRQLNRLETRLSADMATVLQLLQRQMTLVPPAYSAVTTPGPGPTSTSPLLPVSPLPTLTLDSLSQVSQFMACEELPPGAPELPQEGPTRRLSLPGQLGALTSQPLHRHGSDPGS
row,Structure (SMILES),"hERG current change (%, negative = inhibition) at 10uM [%]"
1,Cc1ccccc1N(C(=O)CCCC(=O)Nc1ccccn1)C(C(=O)NC1CCCC1)c1ccc(O)cc1 (stereo not drawn),6.98
2,CCOC(=O)c1ccc(NC(=O)CC2SC(=NC)N(C)C2=O)cc1 (stereo not drawn),-0.295
3,COc1cc(/C=C/C(=O)O)ccc1OCc1ccccc1C#N,4.01
4,COc1cc2[nH]c(=O)n(CCC(=O)N3CCC(N4CCCCC4)CC3)c(=O)c2cc1OC,21.8
5,Cn1nc(C(F)(F)F)c(C#N)c1N1CCN(c2ccccc2F)CC1,3.96
6,CN1CCCC2(CCCN(Cc3nc(Cc4cccc(C(F)(F)F)c4)no3)C2)C1 (stereo not drawn),-45.2
7,C=CCn1c(CCC(=O)O)ccc1-c1ccccc1,-3.49
8,O=C(NCCC1=CCCCC1)C1CCCN(S(=O)(=O)c2cnc[nH]2)C1 (stereo not drawn),-2.18
9,CCCCC(CC)COC1(c2ccccc2)OC(=O)c2ccccc21 (stereo not drawn),6.62
10,[O-][n+]1onc2c1C(N1CCOCC1)CCC2N1CCOCC1 (stereo not drawn),-5.56
11,COc1ccc(C(c2nnnn2C2CCCCC2)N2CCN(c3ccc(OC)cc3)CC2)cc1 (stereo not drawn),-17
12,Cc1ccc(-c2ccc(/C=N/NC(=O)Cc3nnc(N)s3)o2)cc1Cl,-2.07
13,CCOc1ccc(-c2nnc(SCC(=O)Nc3cc(C)on3)o2)cc1,14.1
14,CCc1ccc(N2CC(C)Cn3c2nc2c3c(=O)[nH]c(=O)n2C)cc1 (stereo not drawn),-24.8
15,CCCOc1ccc(C(=O)NNC(=O)CCNC(=O)c2ccco2)cc1OC,13.7
16,CCc1nnc(NC(=O)C2CC(=O)N(CCc3ccc(F)cc3)C2)s1 (stereo not drawn),4.54
17,COc1cc(OC)cc(C(=O)Nc2ccc(N3CCN(C(=O)c4cccs4)CC3)cc2)c1,-12.5
18,COc1ccc(-c2[nH]ncc2-c2cnn(-c3ccccc3)c2)c(O)c1,-16.6
19,Cc1nc(-c2ccncc2)sc1C(=O)Nc1ccc(Br)cc1,15.9
20,Cc1cc(C(=O)NNC2CC(=O)N(c3ccc4ccccc4c3)C2=O)c(C)o1 (stereo not drawn),14.2
21,O=C(NC1(C(F)(F)F)NC(=O)N(C2CCCC2)C1=O)C1CC1 (stereo not drawn),4.63
22,O=C(Cn1nnc(-c2ccc(Cl)cc2)n1)NC1CCS(=O)(=O)C1 (stereo not drawn),-6.69
23,CC(C)(C)c1ccc(SCCc2ccncc2)cc1,3.48

row,Structure (SMILES),"hERG current change (%, negative = inhibition) at 10uM [%]"
1,Cc1ccnc(N2CCC(C(=O)NNC(=O)c3ccccc3C)CC2)n1,-8.38
2,CC(C)(C)c1ccc(NC(=S)NCc2cccnc2)cc1,10.4
3,CC(=O)O.COc1ccc2nccc(/C=C/c3ccnc4ccc(OC)cc34)c2c1,-19.6
4,CCOC(=O)NC(CC(=O)O)c1ccc(OC)c(OC)c1 (stereo not drawn),-5.02
5,O=S(=O)(NCC(c1ccc2c(c1)OCO2)N1CCOCC1)c1ccc(Br)cc1 (stereo not drawn),-16
6,Cn1cccc1CC(=O)N/N=C/c1ccc([N+](=O)[O-])cc1,-1.88
7,CCCc1cc(=O)oc2cc(OCC(=O)NC3CCN(Cc4ccccc4)CC3)ccc12,-60.2
8,CCNC(=S)NCc1ccc2[nH]c(C)cc2c1,5.06
9,COc1ccc2nc(N3CCN(C(=O)c4ccc([N+](=O)[O-])o4)CC3)sc2c1,-49.6
10,CCn1cc(-c2cc(C(F)(F)F)n3nc(C(=O)O)cc3n2)c(C)n1,-8.81
11,O=C(c1ccc2nc(-c3ccco3)c(-c3ccco3)nc2c1)N1CCN(c2ncccn2)CC1,-67.8
12,CCOC(=O)c1c(NC(NC(C)=O)C(Cl)(Cl)Cl)sc2c1CCCC2 (stereo not drawn),-1.73
13,Cc1cc(/C=C2/SC(=O)N(CC(=O)N3CCCC3)C2=O)ccc1N1CCOCC1,1.24
14,CCCOC1CCCN(C(=O)c2cc(COc3ccc(F)c(F)c3)on2)C1 (stereo not drawn),-39.1
15,Cc1ccc2nc(-c3ccccn3)cc(C(=O)N3CCN(c4ncccn4)CC3)c2c1,7.32
16,Cn1nccc1C(=O)Nc1cc(Cl)ccc1Cl,9.02
17,C/C(=N\NC(=O)c1cc(C)oc1C)c1ccc2ccccc2c1,8.79
18,CCC(=O)NCCc1c[nH]c2ccccc12,1.24
19,COc1ccc(CCN=C(N)NS(=O)(=O)c2ccccc2)cc1OC,19.5
20,Cc1c(C(=O)NCc2ccccc2)c(-c2ccccc2)nn1-c1ccccc1,-13
21,CN(C)c1ccc(/C=C2/C(=O)NC(=O)N(Cc3ccco3)C2=O)cc1,4.11
22,COc1ccc(C)cc1N1CC(C(=O)Nc2ccccc2C(=O)NC2CC2)CC1=O (stereo not drawn),2.22
